Some entries of the source have several records that differ or are many. This list holds those alone. An entry can have further records. Results that share an entry seem to repeat one measurement; a mean can stand among them.
Target: T1, WT-LRRK2 (recombinant GST-LRRK2 delta970) (Homo sapiens, UniProt Q5S007)
T1 construct: Recombinant GST-LRRK2 (delta970); GST (N); host or cells: baculovirus-infected Sf9 insect cells
Assay: LRRK2 kinase assay, wild type (32P radiometric, peptide substrate)
Type: biochemical
Conditions: WT-LRRK2 30 nM, ATP ~92 μM (Km), 30 min at 30° C.
Description: Compounds were assessed for inhibition of LRRK2 inhibition using the following procedure. Recombinant GST-LRRK2 (delta970) purified from baculovirus infected insect cells (SF9), at least 90% pure and either wild-type sequence or bearing the pathogenic G2019S mutation, was combined into a kinase buffer at 30 nM concentration. Kinase buffer consists of 50 mM Tris HCl pH 7.4, 1 mM EDTA, and 50 μM peptide substrate (amino acid sequence […]). Experimental compounds or control (no compound) were added at desired concentrations in DMSO and water, where final concentration of DMSO in kinase reactions was 0.1% for all drug concentrations. […] Reactions were incubated at 1400 RPM at 30° C. for 30 min. and then spotted in triplicate directly onto a slot-blot apparatus fitted with phospho-cellulose paper and allowed to dry. Each slot was then washed with 10 mM phosphoric acid buffer until beta-radiation could not be detected in eluted wash buffer, usually ˜1 mL per slot. Paper within each slot were excised and radiation measured by liquid scintillation.

T1 sequence (Q5S007 970-2527 limits assumed): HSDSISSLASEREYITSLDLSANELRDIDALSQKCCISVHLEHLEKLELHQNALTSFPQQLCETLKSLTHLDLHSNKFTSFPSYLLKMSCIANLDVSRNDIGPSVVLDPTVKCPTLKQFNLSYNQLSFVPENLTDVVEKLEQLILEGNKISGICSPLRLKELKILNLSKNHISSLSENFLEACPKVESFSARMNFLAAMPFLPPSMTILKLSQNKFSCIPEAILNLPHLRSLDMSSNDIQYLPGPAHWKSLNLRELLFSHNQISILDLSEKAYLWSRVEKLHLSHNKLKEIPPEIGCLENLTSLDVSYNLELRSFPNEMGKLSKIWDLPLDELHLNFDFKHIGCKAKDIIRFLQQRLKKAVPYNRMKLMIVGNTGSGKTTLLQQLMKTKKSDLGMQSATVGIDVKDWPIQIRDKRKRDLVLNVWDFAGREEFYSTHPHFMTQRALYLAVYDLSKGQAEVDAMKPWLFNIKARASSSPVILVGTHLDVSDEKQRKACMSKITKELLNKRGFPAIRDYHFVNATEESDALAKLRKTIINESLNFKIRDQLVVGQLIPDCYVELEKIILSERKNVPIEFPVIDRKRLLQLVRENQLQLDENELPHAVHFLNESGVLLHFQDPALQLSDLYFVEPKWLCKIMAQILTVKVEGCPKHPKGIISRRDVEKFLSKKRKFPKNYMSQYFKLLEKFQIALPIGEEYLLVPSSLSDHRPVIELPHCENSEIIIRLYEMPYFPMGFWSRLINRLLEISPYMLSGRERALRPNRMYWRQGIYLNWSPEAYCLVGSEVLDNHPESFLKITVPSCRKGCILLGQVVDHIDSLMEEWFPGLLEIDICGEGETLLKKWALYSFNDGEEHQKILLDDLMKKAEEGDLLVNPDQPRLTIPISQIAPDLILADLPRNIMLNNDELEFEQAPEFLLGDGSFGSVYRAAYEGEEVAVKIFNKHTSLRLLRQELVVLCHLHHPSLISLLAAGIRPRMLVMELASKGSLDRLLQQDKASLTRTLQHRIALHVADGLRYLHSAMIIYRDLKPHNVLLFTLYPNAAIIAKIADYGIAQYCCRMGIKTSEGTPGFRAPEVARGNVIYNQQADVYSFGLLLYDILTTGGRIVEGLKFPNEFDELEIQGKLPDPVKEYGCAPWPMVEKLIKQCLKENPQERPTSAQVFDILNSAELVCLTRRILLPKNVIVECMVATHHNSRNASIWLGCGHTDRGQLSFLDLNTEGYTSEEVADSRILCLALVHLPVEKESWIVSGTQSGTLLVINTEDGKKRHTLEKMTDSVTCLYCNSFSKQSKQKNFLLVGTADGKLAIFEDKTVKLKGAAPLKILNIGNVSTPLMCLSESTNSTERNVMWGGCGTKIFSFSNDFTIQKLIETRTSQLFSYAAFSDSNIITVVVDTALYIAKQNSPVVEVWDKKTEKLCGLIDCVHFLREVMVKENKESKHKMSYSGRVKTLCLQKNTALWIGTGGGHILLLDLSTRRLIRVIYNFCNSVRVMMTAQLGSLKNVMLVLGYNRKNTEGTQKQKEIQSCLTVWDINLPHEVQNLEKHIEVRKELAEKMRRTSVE

- IC50: 43 nM, 740 nM, 57 nM [one cell]
Compound: COCCn1cc(Nc2nc(N[C@@H](C)C3CC3)c3cc[nH]c3n2)nn1 [Compound 39, (S)-N4-(1-cyclopropylethyl)-N2-(1-(2-methoxyethyl)-1H-1,2,3-triazol-4-yl)-7H-pyrrolo[2,3-d]pyrimidine-2,4-diamine]

From US10023579B2, “Pyrrolopyrimidine compounds, use as inhibitors of the kinase LRRK2, and methods for preparation thereof” (Southern Research Institute, priority 2015, dated 2018)
